According to the supplement of paper PMC4967469:

Tests used:
Test in all cases: Viability of human cancer cell lines after 72 h of drug (GDSC screen)
Dimethyloxalylglycine = compound: COC(=O)CNC(=O)C(=O)OC [Dimethyloxalylglycine]; conditions: top dose 4000 µM; top dose inferred
Description: (§1)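 Human cancer cell lines in 384-well plates, medium with 10% serum, drug for 72 h over a 256-fold dose range (nine 2-fold or five 4-fold steps up to the top dose). Adherent lines were fixed and stained with the nucleic acid dye Syto60, suspension lines read with resazurin; signal relative to control wells, capped at 0 and 100%. One two-parameter sigmoid per drug and line, fitted in a mixed model over all curves with the slope shared within a line.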

VX-11e = compound: Cc1cnc(Nc2ccc(F)cc2Cl)nc1-c1c[nH]c(C(=O)N[C@H](CO)c2cccc(Cl)c2)c1 [VX-11e]; conditions: top dose 5.12 µM; top dose inferred
Description: as §1

17-AAG = compound: C=CCNC1=C2C[C@@H](C)C[C@H](OC)[C@H](O)[C@@H](C)/C=C(\C)[C@H](OC(N)=O)[C@@H](OC)/C=C\C=C(/C)C(=O)NC(=CC1=O)C2=O [17-AAG]; conditions: top dose 1 µM
Description: as §1

Vismodegib = compound: CS(=O)(=O)c1ccc(C(=O)Nc2ccc(Cl)c(-c3ccccn3)c2)c(Cl)c1 [Vismodegib]; conditions: top dose 10 µM; top dose inferred
Description: as §1

OSI-027 = compound: COc1cccc2cc(-c3nc([C@H]4CC[C@H](C(=O)O)CC4)n4ncnc(N)c34)[nH]c12 [OSI-027]; conditions: top dose 20 µM
Description: as §1

Doxorubicin = compound: COc1cccc2c1C(=O)c1c(O)c3c(c(O)c1C2=O)C[C@@](O)(C(=O)CO)C[C@@H]3O[C@H]1C[C@H](N)[C@H](O)[C@H](C)O1 [Doxorubicin]; conditions: top dose 1.024 µM
Description: as §1

UNC1215 = compound: O=C(c1ccc(C(=O)N2CCC(N3CCCC3)CC2)c(Nc2ccccc2)c1)N1CCC(N2CCCC2)CC1 [UNC1215]; conditions: top dose 1 µM; top dose inferred
Description: as §1

BIX02189 = compound: CN(C)Cc1cccc(N=C(c2ccccc2)c2c(O)[nH]c3cc(C(=O)N(C)C)ccc23)c1 [BIX02189]; conditions: top dose 20 µM; top dose inferred
Description: as §1

CCT018159 = compound: CCc1cc(-c2n[nH]c(C)c2-c2ccc3c(c2)OCCO3)c(O)cc1O [CCT018159]; conditions: top dose 10 µM; top dose inferred
Description: as §1

TG101348 = compound: Cc1cnc(Nc2ccc(OCCN3CCCC3)cc2)nc1Nc1cccc(S(=O)(=O)NC(C)(C)C)c1 [TG101348]; conditions: top dose 10.24 µM
Description: as §1

Row | Cell Line | AUC (Dimethyloxalylglycine) | IC50 (Dimethyloxalylglycine) | AUC (VX-11e) | IC50 (VX-11e) | AUC (17-AAG) | IC50 (17-AAG) | AUC (Vismodegib) | IC50 (Vismodegib) | AUC (OSI-027) | IC50 (OSI-027) | AUC (Doxorubicin) | IC50 (Doxorubicin) | AUC (UNC1215) | IC50 (UNC1215) | AUC (BIX02189) | IC50 (BIX02189) | AUC (CCT018159) | IC50 (CCT018159) | AUC (TG101348) | IC50 (TG101348)
1 | SUP-HD1 (Hodgkin lymphoma, suspension) | 0.499 | 249 µM | 0.969 | > 5.12 µM | 0.798 | 0.449 µM | 0.961 | > 10 µM | 0.386 | 0.619 µM | 0.583 | 0.107 µM | 0.982 | > 1 µM | 0.864 | 16.1 µM | 0.333 | 0.219 µM | 0.467 | 0.521 µM
2 | SUP-T1 (T-cell lymphoblastic leukaemia, suspension) | 0.405 | 141 µM | 0.987 | > 5.12 µM | 0.955 | > 1 µM | 0.966 | > 10 µM | 0.57 | 1.91 µM | 0.552 | 0.0874 µM | 0.98 | > 1 µM | 0.854 | 13.6 µM | 0.985 | > 10 µM | 0.814 | 4.96 µM
3 | SW756 (cervix, adherent) | 0.402 | 127 µM | 0.978 | > 5.12 µM | 0.764 | 0.43 µM | 0.981 | > 10 µM | 0.909 | > 20 µM | 0.733 | 0.339 µM | 0.983 | > 1 µM | 0.984 | > 20 µM | 0.888 | > 10 µM | 0.985 | > 10.2 µM
4 | SW954 (urogenital system, adherent) | 0.358 | 101 µM | 0.864 | 4.59 µM | 0.745 | 0.319 µM | 0.965 | > 10 µM | 0.356 | 0.498 µM | 0.294 | 0.0166 µM | 0.982 | > 1 µM | 0.903 | > 20 µM | 0.793 | 4.64 µM | 0.846 | 7.61 µM
5 | SW962 (urogenital system, adherent) | 0.594 | 483 µM | 0.948 | > 5.12 µM | 0.453 | 0.0451 µM | 0.969 | > 10 µM | 0.729 | 6.66 µM | 0.476 | 0.054 µM | 0.962 | > 1 µM | 0.947 | > 20 µM | 0.855 | > 10 µM | 0.872 | > 10.2 µM
6 | SW1417 (large intestine, adherent) | 0.907 | > 4000 µM | 0.843 | 4.59 µM | 0.89 | > 1 µM | 0.984 | > 10 µM | 0.902 | > 20 µM | 0.733 | 0.335 µM | 0.98 | > 1 µM | 0.965 | > 20 µM | 0.924 | > 10 µM | 0.865 | > 10.2 µM
7 | Saos-2 (osteosarcoma, adherent) | 0.475 | 208 µM | 0.981 | > 5.12 µM | 0.833 | > 1 µM | 0.964 | > 10 µM | 0.947 | > 20 µM | 0.686 | 0.268 µM | 0.978 | > 1 µM | 0.981 | > 20 µM | 0.928 | > 10 µM | 0.962 | > 10.2 µM
8 | T-T (oesophagus, adherent) | 0.537 | 315 µM | 0.931 | > 5.12 µM | 0.505 | 0.0644 µM | 0.979 | > 10 µM | 0.86 | 16.6 µM | 0.631 | 0.147 µM | 0.986 | > 1 µM | 0.966 | > 20 µM | 0.924 | > 10 µM | 0.851 | 7.81 µM
9 | TE-6 (oesophagus, adherent) | 0.718 | 1170 µM | 0.927 | > 5.12 µM | 0.694 | 0.242 µM | 0.986 | > 10 µM | 0.865 | > 20 µM | 0.792 | 0.552 µM | 0.983 | > 1 µM | 0.96 | > 20 µM | 0.92 | > 10 µM | 0.886 | > 10.2 µM
10 | TE-11 (oesophagus, adherent) | 0.593 | 439 µM | 0.99 | > 5.12 µM | 0.569 | 0.095 µM | 0.987 | > 10 µM | 0.973 | > 20 µM | 0.706 | 0.23 µM | 0.989 | > 1 µM | 0.99 | > 20 µM | 0.878 | 8.6 µM | 0.958 | > 10.2 µM
11 | TE-15 (oesophagus, suspension) | 0.484 | 224 µM | 0.73 | 1.59 µM | 0.61 | 0.13 µM | 0.985 | > 10 µM | 0.269 | 0.25 µM | 0.386 | 0.0298 µM | 0.963 | > 1 µM | 0.851 | 18.4 µM | 0.871 | > 10 µM | 0.733 | 3.27 µM
12 | TGBC11TKB (stomach, adherent) | 0.905 | > 4000 µM | 0.95 | > 5.12 µM | 0.669 | 0.173 µM | 0.989 | > 10 µM | 0.959 | > 20 µM | 0.948 | > 1.02 µM | 0.989 | > 1 µM | 0.977 | > 20 µM | 0.964 | > 10 µM | 0.983 | > 10.2 µM
13 | U-118-MG (glioma, adherent) | 0.685 | 901 µM | 0.985 | > 5.12 µM | 0.722 | 0.297 µM | 0.982 | > 10 µM | 0.799 | 11.4 µM | 0.84 | 0.87 µM | 0.984 | > 1 µM | 0.947 | > 20 µM | 0.788 | 5.15 µM | 0.985 | > 10.2 µM

The IC50 comes from the fitted curve, where viability falls to half of the control; a fit beyond the top or the lowest dose is shown as a bound at that dose. AUC, from the same fit, is the share of area under the viability curve across the 256-fold dose range; it is 1 without any effect and falls as sensitivity rises. For some assays here: An inferred top dose is not printed in the source and was worked back from the curve model.
